This passage reports cell count results from the supplement of paper PMC4604168 (melanoma cell lines).

SMILES strings stand for the structures. Some of the results follow. Most values come without repeats; read them as rough.
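Note: cell number obtained by counting DAPI-stained nuclei in high-throughput microscope images with image analysis software, screen run in 1,536-well plates.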

One experiment has as its system MZ2-MEL. In words: cell count relative to DMSO control; melanoma cells; higher = more viable cells. The following applies: library dose: low library concentration; 72 h.
`O=C(O)[C@@H]1[O][Sb](=[O])([O][Sb]2(=[O])[O][C@H]([C@H](O)CO)[C@H](O)[C@H](C(=O)O)[O]2)[O][C@H]([C@H](O)CO)[C@@H]1O` (some centres undefined) [stibogluconate] + Cn1nnc2c(C(N)=O)ncn2c1=O [temozolomide] (first compound 2 µM, partner dose 2 µM) returned a cell count of 93.4%. As for `O=C(O)[C@@H]1[O][Sb](=[O])([O][Sb]2(=[O])[O][C@H]([C@H](O)CO)[C@H](O)[C@H](C(=O)O)[O]2)[O][C@H]([C@H](O)CO)[C@@H]1O` (some centres undefined) [stibogluconate] + CC(C)(C)c1cnc(CSc2cnc(NC(=O)C3CCNCC3)s2)o1 [SNS-032] (first compound 2 µM, partner dose 0.01 µM), the cell count amounted to 98.1%. In the case of `O=C(O)c1ccc2c(c1)nc(Nc1cccc(Cl)c1)c1ccncc12` + CO[C@@H]1[C@H](N(C)C(=O)c2ccccc2)C[C@H]2O[C@]1(C)n1c3ccccc3c3c4c(c5c6ccccc6n2c5c31)C(=O)NC4 [Midostaurin] (first compound 0.4 µM, partner dose 0.08 µM), the cell count stood at 88.7%.

Molecule `O=C(O)[C@@H]1[O][Sb](=[O])([O][Sb]2(=[O])[O][C@H]([C@H](O)CO)[C@H](O)[C@H](C(=O)O)[O]2)[O][C@H]([C@H](O)CO)[C@@H]1O` (some centres undefined) [stibogluconate] + COCC[n+]1c2c(n(Cc3cnccn3)c1C)C(=O)c1ccccc1C2=O [YM155] (first compound 2 µM, partner dose 0.0004 µM) had a cell count of 70.4%. Still for that read-out and setting: the same measure for `O=C(Nc1cc(C(F)(F)F)cc(C(F)(F)F)c1)c1cc(Cl)ccc1O` + NC1(c2ccc(-c3nc4ccn5c(=O)[nH]nc5c4cc3-c3ccccc3)cc2)CCC1 [MK2206] (first compound 0.016 µM, partner dose 0.4 µM): 90.9%; for `O=C(Nc1cc(C(F)(F)F)cc(C(F)(F)F)c1)c1cc(Cl)ccc1O` + O=c1[nH]nc(Sc2ncc([N+](=O)[O-])s2)n1-c1ccc2c(c1)OCCO2 [BI78D3] (first compound 0.016 µM, partner dose 0.2 µM): 104%; for `O=C(O)[C@@H]1[O][Sb](=[O])([O][Sb]2(=[O])[O][C@H]([C@H](O)CO)[C@H](O)[C@H](C(=O)O)[O]2)[O][C@H]([C@H](O)CO)[C@@H]1O` (some centres undefined) [stibogluconate] + Nc1cccc2c1CN(C1CCC(=O)NC1=O)C2=O [lenalidomide] (first compound 2 µM, partner dose 1 µM): 107%. On the same count and under the same terms, in the case of `Cn1nnc2c(C(N)=O)ncn2c1=O` [temozolomide] + CN(NC(=O)CC(=O)NN(C)C(=S)c1ccccc1)C(=S)c1ccccc1 [STA4783] (first compound 2 µM, partner dose 0.006 µM) it was 89.3%.

A further experiment concerns MeWo. Described as above. The following applies: library dose: low library concentration; 72 h.
`O=C(O)[C@@H]1[O][Sb](=[O])([O][Sb]2(=[O])[O][C@H]([C@H](O)CO)[C@H](O)[C@H](C(=O)O)[O]2)[O][C@H]([C@H](O)CO)[C@@H]1O` (some centres undefined) [stibogluconate] + CN(C)S(=O)(=O)c1ccc2c(c1)/C(=C/c1cc3c([nH]1)CCCC3)C(=O)N2 [SU6656] (first compound 2 µM, partner dose 0.4 µM) displayed a cell count of 98.6%.

`O=C(O)c1ccc2c(c1)nc(Nc1cccc(Cl)c1)c1ccncc12` + C[C@]1(c2nc3c(C(N)=O)cccc3[nH]2)CCCN1 [Veliparib] (first compound 0.4 µM, partner dose 1.4 µM) showed a cell count of 90.4%. On the same count and under the same terms, the same measure for `O=C(Nc1cc(C(F)(F)F)cc(C(F)(F)F)c1)c1cc(Cl)ccc1O` + NC(=O)c1ccc(N(C(N)=O)c2c(F)cccc2F)nc1-c1ccc(F)cc1F [VX702] (first compound 0.016 µM, partner dose 0.4 µM): 102%; for `O=C(Nc1cc(C(F)(F)F)cc(C(F)(F)F)c1)c1cc(Cl)ccc1O` + Cn1cnc2c(F)c(Nc3ccc(Br)cc3Cl)c(C(=O)NOCCO)cc21 [selumetinib] (first compound 0.016 µM, partner dose 0.015 µM): 84.5%. For the molecule `O=C(O)c1ccc2c(c1)nc(Nc1cccc(Cl)c1)c1ccncc12` + O=C1NC(=O)/C(=C/c2ccc(-c3ccc(F)cc3O)o2)S1 [AS252424] (first compound 0.4 µM, partner dose 1 µM), the cell count was 87%.

The molecule `O=C(Nc1cc(C(F)(F)F)cc(C(F)(F)F)c1)c1cc(Cl)ccc1O` + O=C(O)[C@@H]1[O][Sb](=[O])([O][Sb]2(=[O])[O][C@H]([C@H](O)CO)[C@H](O)[C@H](C(=O)O)[O]2)[O][C@H]([C@H](O)CO)[C@@H]1O [stibogluconate] (first compound 0.016 µM, partner dose 2 µM) registered a cell count of 96.2%. On to `O=C(O)c1ccc2c(c1)nc(Nc1cccc(Cl)c1)c1ccncc12` + OCc1c[nH]c2ccccc12 [Indole-3-carbinol] (first compound 0.4 µM, partner dose 0.8 µM), for which the cell count came to 89.6%.

As for `O=C(Nc1cc(C(F)(F)F)cc(C(F)(F)F)c1)c1cc(Cl)ccc1O` + COc1cc2ncnc(Nc3ccc(Oc4ccccc4)cc3)c2cc1OC [SrcI1] (first compound 0.016 µM, partner dose 2 µM), the cell count was found to be 79.6%. On the same count and under the same terms, the same measure for `O=C(O)[C@@H]1[O][Sb](=[O])([O][Sb]2(=[O])[O][C@H]([C@H](O)CO)[C@H](O)[C@H](C(=O)O)[O]2)[O][C@H]([C@H](O)CO)[C@@H]1O` (some centres undefined) [stibogluconate] + COc1cc(Nc2ncc(F)c(Nc3ccc4c(n3)NC(=O)C(C)(C)O4)n2)cc(OC)c1OC [Tamatinib] (first compound 2 µM, partner dose 0.4 µM): 96.4%; for `O=C(Nc1cc(C(F)(F)F)cc(C(F)(F)F)c1)c1cc(Cl)ccc1O` + CC1(C)CCC(c2ccc(Cl)cc2)=C(CN2CCN(c3ccc(C(=O)NS(=O)(=O)c4ccc(N[C@H](CCN5CCOCC5)CSc5ccccc5)c(S(=O)(=O)C(F)(F)F)c4)cc3)CC2)C1 [ABT263] (first compound 0.016 µM, partner dose 0.4 µM): 73.7%.

Turning to `O=C(Nc1cc(C(F)(F)F)cc(C(F)(F)F)c1)c1cc(Cl)ccc1O` + CC(C)CCN1c2nc(Nc3cc(F)c(O)c(F)c3)ncc2N(C)C(=O)C1C [BID1870] (first compound 0.016 µM, partner dose 0.2 µM), the cell count came out at 90.6%. Molecule `O=C(Nc1cc(C(F)(F)F)cc(C(F)(F)F)c1)c1cc(Cl)ccc1O` + O=C(Nc1cccc(Cl)c1)Nc1ncc(CCNc2ncnc3ccsc23)s1 [SNS314] (first compound 0.016 µM, partner dose 0.0008 µM) showed a cell count of 103%. Still for that read-out and setting: the same measure for `O=C(O)[C@@H]1[O][Sb](=[O])([O][Sb]2(=[O])[O][C@H]([C@H](O)CO)[C@H](O)[C@H](C(=O)O)[O]2)[O][C@H]([C@H](O)CO)[C@@H]1O` (some centres undefined) [stibogluconate] + CCc1ccc(CCOc2ccc(CC3SC(=O)NC3=O)cc2)nc1 [pioglitazone] (first compound 2 µM, partner dose 2 µM): 106%; for `O=C(O)[C@@H]1[O][Sb](=[O])([O][Sb]2(=[O])[O][C@H]([C@H](O)CO)[C@H](O)[C@H](C(=O)O)[O]2)[O][C@H]([C@H](O)CO)[C@@H]1O` (some centres undefined) [stibogluconate] + O=C(O)C(=O)Nc1sc2c(c1C(=O)O)CCNC2 [TCS401] (first compound 2 µM, partner dose 1.66667 µM): 96.8%; for `O=C(Nc1cc(C(F)(F)F)cc(C(F)(F)F)c1)c1cc(Cl)ccc1O` + CS(=O)(=O)c1ccc(C(=O)Nc2ccc(Cl)c(-c3ccccn3)c2)c(Cl)c1 [vismodegib] (first compound 0.016 µM, partner dose 1 µM): 98.7%. The same measure, in the same setting: in the case of `O=C(Nc1cc(C(F)(F)F)cc(C(F)(F)F)c1)c1cc(Cl)ccc1O` + COc1ccc(Cl)c(Nc2nc3ccccc3nc2NS(=O)(=O)c2cccc(NC(=O)C(C)(C)N)c2)c1 [XL147] (first compound 0.016 µM, partner dose 0.8 µM) it was 89.6%; in that of `O=C(O)c1ccc2c(c1)nc(Nc1cccc(Cl)c1)c1ccncc12` + Cn1nnc2c(C(N)=O)ncn2c1=O [temozolomide] (first compound 0.4 µM, partner dose 2 µM), 87.4%. The same measure, in the same setting: the same measure for `O=C(O)c1ccc2c(c1)nc(Nc1cccc(Cl)c1)c1ccncc12` + CC1(C)NC(=O)N(c2ccc([N+](=O)[O-])c(C(F)(F)F)c2)C1=O [nilutamide] (first compound 0.4 µM, partner dose 1 µM): 96.2%; for `O=C(O)c1ccc2c(c1)nc(Nc1cccc(Cl)c1)c1ccncc12` + Oc1nc(-c2ccc(C(F)(F)F)cc2)nc2c1CSCC2 [XAV939] (first compound 0.4 µM, partner dose 2 µM): 90.3%; for `O=C(O)[C@@H]1[O][Sb](=[O])([O][Sb]2(=[O])[O][C@H]([C@H](O)CO)[C@H](O)[C@H](C(=O)O)[O]2)[O][C@H]([C@H](O)CO)[C@@H]1O` (some centres undefined) [stibogluconate] + C#Cc1cccc(Nc2ncnc3cc(OCCOC)c(OCCOC)cc23)c1 [erlotinib] (first compound 2 µM, partner dose 0.8 µM): 88.3%. Consider `O=C(O)[C@@H]1[O][Sb](=[O])([O][Sb]2(=[O])[O][C@H]([C@H](O)CO)[C@H](O)[C@H](C(=O)O)[O]2)[O][C@H]([C@H](O)CO)[C@@H]1O` (some centres undefined) [stibogluconate] + C[C@@H]1CCN(C(=O)CC#N)C[C@@H]1N(C)c1ncnc2[nH]ccc12 [CP690550] (first compound 2 µM, partner dose 1 µM), for which the cell count turned out to be 97%.
